Reference: PubChem BioAssay AID504706 (National Center for Advancing Translational Sciences (NCATS), 2011)
The campaign covered roughly 320,000 compounds. About 200 (0.062%) were called active. This list was built around the results that the source calls inconclusive (neither active nor inactive); the mix of calls is not that of the screen. Calls follow the shape of the dose curve; as a rule, active = well fitted activation curve with a large enough effect; inconclusive = small, poorly fitted or top-dose-only effect; inactive = no such curve, though single readings can be large or run the other way. Potencies of inconclusive entries are left out as doubtful fits.

Experiment: qHTS assay for re-activators of p53 using a Luc reporter; also: nearly all actives have a fitted effect of over 45% in size; as to activity change, positive = activation: % of control where 0% means no effect
Settings: H1299 p53-A138V BP100-luciferase reporter, luminescence, 24 h; series mostly up to 92.2 µM; activity change, positive = activation: at the top concentration
Summary of the method: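 p53-null H1299 cells stably carrying temperature-sensitive p53-A138V and a BP100-luciferase reporter were pinned with compounds (4-point, 1:5 series) and held 24 hrs at 37 deg C. Luminescence was read 10 min after detection reagent.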
Potency is read from the fitted curve at half-maximal effect; tags tell the direction and shape of the fitted curve.

Compound	Potency	activity change, positive = activation
Cc1ccc(NC(=O)C(C)c2cccc(C(=O)c3ccccc3)c2)cc1 (stereo unspecified)	inconclusive [activator, partial curve, poor fit]	
O=C(Nc1ccc(N2CCOCC2)cc1)c1cc2c(s1)CCCCC2		inactive: -2.15%
Cc1c(O)ccc(C(=O)COc2ccc(F)cc2)c1O	inconclusive [activator, partial curve, poor fit]	
Brc1ccccc1OCCCn1cnc2ccccc21	inconclusive [activator, full curve]	
CN(C)CCCN(C(=O)c1cc(-c2cccs2)nc2ccccc12)c1nc2c(F)cccc2s1	inconclusive [activator, single point]	
CCOc1ccccc1NC(=O)Cn1cnc2c(cnn2-c2ccc(C)c(C)c2)c1=O	inconclusive [activator, single point]	
CCOc1cccc2c1OC1(CCCCC1)N1N=C(c3cccnc3)CC21 (stereo unspecified)	inconclusive [activator, full curve, poor fit]	
Cc1nnc(NC(=O)C2CCN(c3nnnn3-c3ccccc3)CC2)s1	inconclusive [activator, single point]	
O=C(COc1ccc2oc3c(c2c1)CCCC3)Nc1ccccn1	inconclusive [activator, full curve, poor fit]	
O=C(Nc1ccc(NC(=O)C2CC2)nc1)c1cccs1	inconclusive [activator, partial curve, poor fit]	
CC(C)(C)c1ccc(C(=O)NCCC(=O)N2CCCC2)cc1	inconclusive [activator, full curve]	
COc1ccccc1/C=C1\SC(=S)N(CCC(=O)N2CCN(C)CC2)C1=O	inconclusive [activator, partial curve, poor fit]	
O=C(Nc1ccc2c(c1)OCCO2)c1ccc(Cl)c([N+](=O)[O-])c1	inconclusive [activator, partial curve, poor fit]	
O=C(Nc1ccc2c(c1)CCC2)C1CCCN(c2ncccn2)C1 (stereo unspecified)	inconclusive [activator, partial curve, poor fit]	
Cc1ccc2oc(C(=O)N(C)Cc3ccc(C)o3)c(C)c2c1	inconclusive [activator, partial curve, poor fit]	
O=C1C(Cl)=C(NC2CCCCC2)C(=O)N1c1ccc(Cl)cc1	inconclusive [activator, full curve, poor fit]	
C=CCn1c(=O)c(C(=O)Nc2ccccc2C)c(O)c2ccccc21	inconclusive [activator, partial curve, poor fit]	
Cc1nn(C)c(C)c1/C=N/NC(=O)CCn1nc(C)c([N+](=O)[O-])c1C		inactive: 0.801%
O=[N+]([O-])c1nn(-c2ccc(Cl)cc2)n(O)c1=NCc1cccnc1	inconclusive [activator, partial curve, poor fit]	
Cc1ccc(NC(=O)c2cc(N(C)C)ccc2[P+](=O)O)cc1	inconclusive [activator, partial curve, poor fit]	
CCN(C[C@H]1N[C@@](CC)(C(=O)OC)[C@H]2C(=O)N(Cc3ccccc3)C(=O)[C@@H]12)C(=O)Nc1ccc(C(F)(F)F)cc1		inactive: 3.12%

Compound	Potency	activity change, positive = activation
O=C(CSc1cccc[n+]1[O-])Nc1ccc([N+](=O)[O-])cc1Cl	inconclusive [activator, single point]	
CS(=O)(=O)NN1C(=O)c2ccccc2NC1c1ccccc1 (stereo unspecified)		inactive: -3.1%
Cc1nc(SCC(=O)Nc2ccc3c(c2)OCCO3)nc(C)c1C		inactive: 0.0151%
O=C1c2ccccc2CN1CCSC(=S)N1CCOCC1	inconclusive [activator, partial curve, poor fit]	
CCOC(=O)c1ccc(NC(=O)CSc2nnc(CCc3ccc(C)o3)n2-c2ccccc2)cc1		inactive: -5.48%
C#CCN1C(=O)S/C(=C/c2cc(C)n(CC)c2C)C1=O	inconclusive [activator, full curve, poor fit]	
COc1cccc(-c2ccc(-c3noc(-c4ccccc4F)n3)c(OC)n2)c1		inactive: 2.75%
CCCC(C)NS(=O)(=O)c1ccccc1 (stereo unspecified)		inactive: -3.99%
Cc1ccc(-c2nc3c4ccccc4ccn3c2CN2CCCCC2)cc1	inconclusive [activator, partial curve, poor fit]	
O=C(COc1ccccc1)N(CCc1ccccc1)c1nc(-c2ccc(F)cc2)cs1	inconclusive [activator, single point]	
CCOc1ccc(OCCC(=O)OCC(=O)N2CCN(S(=O)(=O)c3ccc(Cl)cc3)CC2)cc1	inconclusive [activator, single point]	
COc1ccc(-c2csc(-n3cccn3)n2)cc1	inconclusive [activator, full curve, poor fit]	
COc1cc(C(C)=O)ccc1Oc1ncnc2c1cnn2-c1ccc(F)cc1	inconclusive [activator, partial curve, poor fit]	
CO/C([O-])=N/c1c[n+](-c2ccc(C)cc2)no1	inconclusive [activator, single point]	
COc1ccccc1/C=C/C(=O)NCC(=O)N/N=C/c1ccccc1		inactive: -6.14%
COc1ccc2nc(NC(=O)c3ccc4ncsc4c3)sc2c1	inconclusive [activator, partial curve, poor fit]	
CN(C)c1ccnc(NCc2ccccc2)c1C#N	inconclusive [activator, single point]	
S=c1[nH]nc(-c2ccco2)n1/N=C/C(Cl)=C/c1ccccc1	inconclusive [activator, partial curve, poor fit]	
Cc1ccc(CSc2nnc(-c3ccncc3)n2C)cc1		inactive: -0.624%
COc1ccc2cc3cc(C(=O)N4CCCCCC4)oc3nc2c1	inconclusive [activator, partial curve, poor fit]	
